The list shows a part of the results. Many values rest on one well or one pass, so single values are uncertain.
Key:
Test in all cases: cell count relative to DMSO control; melanoma cells; higher = more viable cells
Conditions in all cases: library dose: low library concentration; 72 h
WM115 = test system: WM115
WM1716 = test system: WM1716
WM1745 = test system: WM1745
WM3526 = test system: WM3526
WM3619 = test system: WM3619
WM451Lu = test system: WM451Lu
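Note: cell number obtained by counting DAPI-stained nuclei in high-throughput microscope images with image analysis software, screen run in 1,536-well plates.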

| Structure (SMILES) | cell count (WM115) [%] | cell count (WM1716) [%] | cell count (WM1745) [%] | cell count (WM3526) [%] | cell count (WM3619) [%] | cell count (WM451Lu) [%] |
| --- | --- | --- | --- | --- | --- | --- |
| Clc1ccc(Nc2nnc(Cc3ccncc3)c3ccccc23)cc1 [vatalanib] + Cn1nnc2c(C(N)=O)ncn2c1=O [temozolomide] (first compound 2 µM, partner dose 2 µM) | 95.9 | 98 | 86.2 | 89 | 71.3 | 68 |
| OCc1c[nH]c2ccccc12 [Indole-3-carbinol] + Cn1cc(/C=C2\C(=O)Nc3cccnc32)c2ccccc21 [GW441756] (first compound 0.8 µM, partner dose 0.4 µM) | 97.4 | 95.8 | 103 | 102 | 105 | 103 |
| OCc1c[nH]c2ccccc12 [Indole-3-carbinol] + Cn1c(Nc2ccc(C(F)(F)F)cc2)nc2cc(Oc3ccnc(-c4ncc(C(F)(F)F)[nH]4)c3)ccc21 [CHIR265] (first compound 0.8 µM, partner dose 0.08 µM) | 71.8 | 80.9 | 71.9 | 71 | 50.4 | 89.7 |
| O=C(CCCCCCC(=O)Nc1ccccc1)NO [vorinostat] + COc1cc(N2CCC(N3CCN(C)CC3)CC2)ccc1Nc1ncc(Cl)c(Nc2ccccc2S(=O)(=O)C(C)C)n1 [NVP-TAE684] (first compound 0.08 µM, partner dose 0.08 µM) | 107 | 110 | 108 | 95.9 | 95.6 | 88.4 |
| Clc1ccc(Nc2nnc(Cc3ccncc3)c3ccccc23)cc1 [vatalanib] + COC(=O)c1sccc1S(=O)(=O)Nc1ccc(Nc2ccccc2)cc1OC [GSK0660] (first compound 2 µM, partner dose 1 µM) | 91.6 | 114 | 107 | 106 | 84.8 | 82.7 |
| Cn1c(Nc2ccc(C(F)(F)F)cc2)nc2cc(Oc3ccnc(-c4ncc(C(F)(F)F)[nH]4)c3)ccc21 + O=C(CCCCCCC(=O)Nc1ccccc1)NO [vorinostat] (first compound 0.08 µM, partner dose 0.08 µM) | 57.9 | 83.6 | 73.9 | 52.3 | 53.6 | 78.9 |
| Nc1cccc2c1CN(C1CCC(=O)NC1=O)C2=O (stereo unspecified) [lenalidomide] + O=S(=O)(c1ccccc1)N(CC(F)(F)F)c1ccc(C(O)(C(F)(F)F)C(F)(F)F)cc1 [T0901317] (first compound 1 µM, partner dose 1.4 µM) | 81.1 | 67.5 | 81.2 | 106 | 89.5 | 76.7 |
| Clc1ccc(Nc2nnc(Cc3ccncc3)c3ccccc23)cc1 [vatalanib] + CCCCCCCCCCCC1=C(O)C(=O)C=C(O)C1=O [Embelin] (first compound 2 µM, partner dose 1.2 µM) | 88.9 | 92.1 | 96.7 | 96.1 | 109 | 107 |
| Cn1c(Nc2ccc(C(F)(F)F)cc2)nc2cc(Oc3ccnc(-c4ncc(C(F)(F)F)[nH]4)c3)ccc21 + C=CCn1c(=O)c2cnc(Nc3ccc(N4CCN(C)CC4)cc3)nc2n1-c1cccc(C(C)(C)O)n1 [MK1775] (first compound 0.08 µM, partner dose 0.02 µM) | 40.6 | 63 | 56.8 | 40 | 70.1 | 82 |
| Clc1ccc(Nc2nnc(Cc3ccncc3)c3ccccc23)cc1 [vatalanib] + CC(C)CCN1c2nc(Nc3cc(F)c(O)c(F)c3)ncc2N(C)C(=O)C1C [BID1870] (first compound 2 µM, partner dose 0.2 µM) | 95.3 | 106 | 92.3 | 101 | 119 | 101 |
| Cn1c(Nc2ccc(C(F)(F)F)cc2)nc2cc(Oc3ccnc(-c4ncc(C(F)(F)F)[nH]4)c3)ccc21 + COC(=O)c1sccc1S(=O)(=O)Nc1ccc(Nc2ccccc2)cc1OC [GSK0660] (first compound 0.08 µM, partner dose 1 µM) | 49.8 | 71.1 | 63.3 | 44.7 | 76.4 | 83.7 |
| OCc1c[nH]c2ccccc12 [Indole-3-carbinol] + C#Cc1cccc(Nc2ncnc3cc(OCCOC)c(OCCOC)cc23)c1 [erlotinib] (first compound 0.8 µM, partner dose 0.8 µM) | 89.3 | 85.7 | 84.9 | 89.1 | 105 | 98.2 |
| OCc1c[nH]c2ccccc12 [Indole-3-carbinol] + Nc1cccc2c1CN(C1CCC(=O)NC1=O)C2=O [lenalidomide] (first compound 0.8 µM, partner dose 1 µM) | 107 | 95.5 | 92.1 | 102 | 89.3 | 103 |
| Clc1ccc(Nc2nnc(Cc3ccncc3)c3ccccc23)cc1 [vatalanib] + CO[C@@H]1[C@H](N(C)C(=O)c2ccccc2)C[C@H]2O[C@]1(C)n1c3ccccc3c3c4c(c5c6ccccc6n2c5c31)C(=O)NC4 [Midostaurin] (first compound 2 µM, partner dose 0.08 µM) | 83 | 70.3 | 81 | 88.6 | 63.3 | 99.1 |
| Cn1c(Nc2ccc(C(F)(F)F)cc2)nc2cc(Oc3ccnc(-c4ncc(C(F)(F)F)[nH]4)c3)ccc21 + NC(=O)Nc1cc(-c2cccc(F)c2)sc1C(=O)N[C@H]1CCCNC1 [AZD7762] (first compound 0.08 µM, partner dose 0.02 µM) | 31.5 | 67.6 | 88.3 | 54.2 | 80.9 | 73.6 |
| OCc1c[nH]c2ccccc12 [Indole-3-carbinol] + COc1ccc(Cl)c(Nc2nc3ccccc3nc2NS(=O)(=O)c2cccc(NC(=O)C(C)(C)N)c2)c1 [XL147] (first compound 0.8 µM, partner dose 0.8 µM) | 97.3 | 91 | 115 | 105 | 116 | 96.3 |
| Cn1c(Nc2ccc(C(F)(F)F)cc2)nc2cc(Oc3ccnc(-c4ncc(C(F)(F)F)[nH]4)c3)ccc21 + C[C@@H]1CCN(C(=O)CC#N)C[C@@H]1N(C)c1ncnc2[nH]ccc12 [CP690550] (first compound 0.08 µM, partner dose 1 µM) | 56.7 | 85.3 | 68.4 | 58.9 | 65.8 | 103 |
| Nc1cccc2c1CN(C1CCC(=O)NC1=O)C2=O (stereo unspecified) [lenalidomide] + CC(C)(C)c1cnc(CSc2cnc(NC(=O)C3CCNCC3)s2)o1 [SNS-032] (first compound 1 µM, partner dose 0.01 µM) | 107 | 88.1 | 83.8 | 110 | 89.3 | 108 |
| Clc1ccc(Nc2nnc(Cc3ccncc3)c3ccccc23)cc1 [vatalanib] + COc1ccc(-c2ccc3c(N4CCOCC4)nc(N4C[C@@H](C)O[C@@H](C)C4)nc3n2)cc1CO [KU0063794] (first compound 2 µM, partner dose 0.02 µM) | 104 | 107 | 101 | 105 | 112 | 86.6 |
| Nc1cccc2c1CN(C1CCC(=O)NC1=O)C2=O (stereo unspecified) [lenalidomide] + O=C(Nc1cccc(Cl)c1)Nc1ncc(CCNc2ncnc3ccsc23)s1 [SNS314] (first compound 1 µM, partner dose 0.0008 µM) | 55.6 | 99.1 | 89 | 81.6 | 94.8 | 93.4 |
| COCC[n+]1c2c(n(Cc3cnccn3)c1C)C(=O)c1ccccc1C2=O + CC(C)(C)c1cnc(CSc2cnc(NC(=O)C3CCNCC3)s2)o1 [SNS-032] (first compound 0.0004 µM, partner dose 0.01 µM) | 83.4 | 87.8 | 89.2 | 94.4 | 93.4 | 73.1 |
| Nc1cccc2c1CN(C1CCC(=O)NC1=O)C2=O (stereo unspecified) [lenalidomide] + CC1(C)NC(=O)N(c2ccc([N+](=O)[O-])c(C(F)(F)F)c2)C1=O [nilutamide] (first compound 1 µM, partner dose 1 µM) | 90.9 | 85.6 | 88.3 | 91.3 | 88.6 | 84.8 |
| OCc1c[nH]c2ccccc12 [Indole-3-carbinol] + OCCn1cc(-c2cnc3nnn(Cc4ccc5ncccc5c4)c3n2)cn1 [PF04217903] (first compound 0.8 µM, partner dose 1 µM) | 103 | 93 | 89.9 | 110 | 64.7 | 96.2 |
| C#Cc1cccc(Nc2ncnc3cc(OCCOC)c(OCCOC)cc23)c1 [erlotinib] + CN(NC(=O)CC(=O)NN(C)C(=S)c1ccccc1)C(=S)c1ccccc1 [STA4783] (first compound 0.8 µM, partner dose 0.006 µM) | 80.7 | 69.6 | 60.7 | 86.3 | 83.9 | 103 |
| Clc1ccc(Nc2nnc(Cc3ccncc3)c3ccccc23)cc1 [vatalanib] + C#Cc1cccc(Nc2ncnc3cc(OCCOC)c(OCCOC)cc23)c1 [erlotinib] (first compound 2 µM, partner dose 0.8 µM) | 100 | 98.9 | 77.3 | 91.3 | 87.6 | 92.4 |
| Clc1ccc(Nc2nnc(Cc3ccncc3)c3ccccc23)cc1 [vatalanib] + CCc1ccc(CCOc2ccc(CC3SC(=O)NC3=O)cc2)nc1 [pioglitazone] (first compound 2 µM, partner dose 2 µM) | 92 | 97.3 | 101 | 78.4 | 71.7 | 82.6 |

Source: the supplement of paper PMC4604168 (melanoma cell lines)
